For 68 compounds, z-score results are on record in PubChem BioAssay AID488969 (Vanderbilt High Throughput Screening Facility, 2010).

Each structure is given as a SMILES string. In all, about 110,000 compounds were measured (“z-score”: median about -0.1, highest 2% from about 2 on). This is one part of the list.

The experiment deals with Metabotropic glutamate receptor 8 (Rattus norvegicus) (UniProt P70579). Briefly: rat mGluR8 modulators via GIRK flux, primary screen, cell-based, thallium flux, HTS (AID 488969). The settings on record: HEK293 rat mGluR8, GIRK (G protein-gated inwardly rectifying potassium channel) thallium flux, FluoZin2; at 10 µM; stronger effect = higher value; submaximal glutamate (EC20) added with thallium.
UniProt P70579, sequence (P70579 whole entry, looked up): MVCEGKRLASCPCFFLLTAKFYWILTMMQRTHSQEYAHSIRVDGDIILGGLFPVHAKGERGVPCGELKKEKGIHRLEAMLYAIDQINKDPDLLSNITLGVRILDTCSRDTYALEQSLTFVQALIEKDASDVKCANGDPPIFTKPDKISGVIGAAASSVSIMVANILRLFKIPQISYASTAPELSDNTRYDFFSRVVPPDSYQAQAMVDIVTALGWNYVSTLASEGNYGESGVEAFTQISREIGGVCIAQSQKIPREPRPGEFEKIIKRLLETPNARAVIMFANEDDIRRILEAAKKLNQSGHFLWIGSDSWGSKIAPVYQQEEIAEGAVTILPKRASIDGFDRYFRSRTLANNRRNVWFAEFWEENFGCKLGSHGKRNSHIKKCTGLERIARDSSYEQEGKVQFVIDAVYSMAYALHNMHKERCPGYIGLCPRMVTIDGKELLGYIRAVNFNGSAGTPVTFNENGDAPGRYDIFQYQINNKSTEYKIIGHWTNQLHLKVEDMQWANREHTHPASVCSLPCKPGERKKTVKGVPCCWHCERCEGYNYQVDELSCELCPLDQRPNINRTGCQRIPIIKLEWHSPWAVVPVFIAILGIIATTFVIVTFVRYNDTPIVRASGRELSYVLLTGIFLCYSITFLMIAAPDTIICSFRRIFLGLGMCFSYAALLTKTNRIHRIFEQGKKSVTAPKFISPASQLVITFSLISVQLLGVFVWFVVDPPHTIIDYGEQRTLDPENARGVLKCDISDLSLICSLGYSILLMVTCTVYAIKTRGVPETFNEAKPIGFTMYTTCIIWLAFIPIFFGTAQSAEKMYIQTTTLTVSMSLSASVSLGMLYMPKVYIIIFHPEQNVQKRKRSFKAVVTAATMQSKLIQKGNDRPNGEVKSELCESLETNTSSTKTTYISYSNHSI
Take `Cc1ccc(C(=O)COC(=O)c2ccc3c(c2)C(=O)N(c2cccc4ncccc24)C3=O)cc1`: the z-score is 0.247.

As for `COc1ccc(OC)c(NC(=O)c2cccnc2Sc2ccccc2)c1`, the z-score was -0.336.

Consider `COC(=O)c1[nH]c2cc(OC)ccc2c1NC(=O)c1ccc2c(c1)OCO2`, for which the z-score was found to be 0.0807.

For `Cc1nn(C)cc1CNC(=O)c1ccccc1Br`, the z-score stood at 0.221.

In the case of `COc1cc(C(=O)Nc2ccc(Oc3ncnc4sc(-c5ccccc5)cc34)cc2)cc(OC)c1OC`, the z-score is 0.344.

`COc1ccccc1Nc1nc(N)nc(CSc2nc(C)cc(C)n2)n1` registered a z-score of 1.

For the compound `COc1ccccc1NC(=O)C(=O)N/N=C(\C)CC(=O)Nc1ccc(OCc2ccccc2)cc1`, the z-score was -0.235.

`CCOC(=O)c1c(NC(=O)CSc2nnc(-c3ccco3)o2)sc(C)c1C`: the z-score was -0.799.

Compound `CCOC(=O)C1=C(CC)Nc2ccccc2N=C1NC(=O)Cn1cnc2ccccc2c1=O` returned a z-score of -0.141.

`CC1=C(OC(=O)c2ccccc2)C(C)(C)C(c2ccccc2)OC1=O` (stereo not drawn) registered a z-score of -0.174.

Regarding `Cc1sc(/N=C/c2c(O)ccc3ccccc23)c(C#N)c1C`, the z-score is 0.123.

Compound `O=C1C(Nc2cccc(O)c2)=C(N2CCCCC2)C(=O)c2ccccc21` returned a z-score of 0.369.

For `CCOC(=O)c1c(C)oc2cc3c(C(=O)OCC)c(C)oc3cc12`, the z-score is -0.093.

Consider `O=C(O)CCC(=O)N1CCc2cc(S(=O)(=O)Nc3ccc4c(c3)OCCO4)ccc21`, for which the z-score was -0.517.

In turn, `Cn1c2c(c(=O)c3ccccc31)CCC(C)(C)O2` showed a z-score of -0.255.

`CCCn1c(=O)[nH]c(=O)c2c1nc(-c1ccc(OC(F)F)cc1)n2CCN1CCOCC1` registered a z-score of -0.179.

The compound `Cc1ccc2[nH]c3c(c2c1)CN(C(=O)CN1c2ccc(F)cc2CCC1C)CC3` (stereo not drawn) displayed a z-score of -0.0592.

With `COc1ccccc1-n1c(SCC(=O)O)nnc1-c1ccc(S(=O)(=O)N2CCCCC2)cc1`, the z-score is -0.42.

Compound `O=C(CCCn1c(=O)c2ccccc2n(CC(=O)NCc2ccco2)c1=O)NCc1ccco1` yielded a z-score of -0.277.

Compound `CCn1c(SCc2ccccc2)nnc1-c1cccs1` yielded a z-score of 0.797.

`COc1cc(C2CC(=O)N3CN(c4ccccc4C)CSC3=C2C#N)cc(OC)c1OC` (stereo not drawn) showed a z-score of 0.237.

With `O=C(NN1C(=O)C2C3C=CC(C4CC34)C2C1=O)c1ccc(Cl)cc1Cl` (stereo not drawn), the z-score was -0.0308.

For `Cc1sc(NC(=O)c2cccs2)c(C(=O)OC(C)C)c1C`, the z-score was 0.117.

On to `COc1ccc(NC(=O)C(Sc2nnc3ccccn23)c2ccccc2)cc1Cl` (stereo not drawn), for which the z-score was -0.0405.

The compound `O=C(NCCCn1ccnc1)c1cc2ccccc2oc1=O` gave a z-score of -0.0604.

Consider `COc1ccccc1CNC(=O)/C=C/c1cc2c(cc1Br)OCO2`, for which the z-score is -0.0108.

In the case of `C/C(CCc1ccc2c(c1)OCO2)=N\N=C1\NC(=O)CC(C(=O)Nc2ccc(Cl)cc2)S1` (stereo not drawn), the z-score is -0.259.

`CC1(C)CC(=O)C2=C(C1)N(c1ccc(F)cc1)C(=O)C2(O)C(F)(F)F` (stereo not drawn): the z-score was -0.0291.

For `Cc1nn(-c2ccccc2)c2c1C(=O)N(c1ccccc1)C(=O)C(C)(C)C2`, the z-score stood at 0.165.

In turn, `O=C(CSc1ncc(-c2ccccc2)[nH]1)Nc1cccc(O)c1` came in with a z-score of -0.0843.

As to `CC(=O)Nc1ccc(S(=O)(=O)NNC(=O)COc2cccc3ccccc23)cc1`, the z-score is 0.0073.

Take `CCCCNCC(=O)Nc1sc(C)c(C)c1C(=O)OCC`: the z-score is -0.497.

Turning to `O=C(c1ccco1)n1nc(NCc2ccccc2)nc1NCc1ccccc1`, the z-score amounted to 0.126.

Consider `Cc1cc(C(=O)OCC(=O)NCCC(C)C)c2ccccc2n1`, for which the z-score was determined as 0.0159.

In turn, `CC(C)(C)Oc1ncc(Br)c(OC(C)(C)C)n1` registered a z-score of -0.0332.

With `CC(C)Cn1c2ccccc2c2cc(C(=O)O)ccc21`, the z-score is 0.449.

Regarding `CC(C)Cc1nc(S(=O)(=O)c2ccc(Cl)cc2)c(N2CCOCC2)o1`, the z-score is -0.0996.

In turn, `Cc1nnc(NC(=O)C(C)Sc2nncn2C)s1` (stereo not drawn) returned a z-score of -0.533.

The compound `CN(CC(=O)Nc1ccc(Cl)c(Cl)c1)C(=O)/C=C/c1ccc(F)cc1` displayed a z-score of -0.298.

In turn, `CN(Cc1ccccc1)S(=O)(=O)c1cccs1` came in with a z-score of -0.244.

For the compound `COC(=O)c1cc2n(n1)CCN(Cc1ccccc1Cl)C2=O`, the z-score was -0.487.

Consider `CCOc1ccc(N2CC(C(=O)NCCCN3CCOCC3)CC2=O)cc1` (stereo not drawn), for which the z-score was -0.0255.

In turn, `Cc1ccccc1NC(=O)CCC(=O)OCC(=O)c1ccc(-c2ccccc2)cc1` yielded a z-score of 0.0456.

The compound `COc1cc(C(=O)O/N=C2/C=C(C)C(=O)C=C2C)cc(OC)c1OC` gave a z-score of -0.305.

`CC(=O)c1cccc(N(C(=O)Cn2nnc3ccccc32)C(C(=O)NC2CCCCC2)c2cn(C)nc2C)c1` (stereo not drawn) displayed a z-score of 0.459.

`Cc1c(N=Cc2cc(Br)cc(Br)c2O)cccc1C(=O)O`: the z-score was -0.81.

With `CN1CCC/C1=C/C=C1\SC(=S)NC1=O`, the z-score was determined as 2.4.

`CN(C)S(=O)(=O)N(CC(=O)Nc1ccc2ccccc2c1)c1ccccc1`: the z-score worked out at 1.91.

In turn, `Cc1ccc(C(=O)NCc2ccc(Cl)cc2)o1` returned a z-score of 1.66.

In turn, `COc1ccc(N(CC(=O)Nc2cc(Cl)ccc2OC)S(=O)(=O)c2c(C)noc2C)cc1` gave a z-score of -0.377.

Compound `COc1ccc(OC)c(NC(=O)CSc2ncccc2C(=O)O)c1` came in with a z-score of -0.0307.

`CC(C)CNS(=O)(=O)c1cc(C(=O)N2CC(C)OC(C)C2)c(Cl)cc1Cl` (stereo not drawn) yielded a z-score of 0.133.

`COc1ccccc1OCc1ccc(C(=O)NCc2ccco2)o1`: the z-score is -0.38.

Consider `CC1(C)NC(=O)N(CC(O)CN2C(=O)NC(C)(C)C2=O)C1=O`, for which the z-score is -1.24.

As to `COc1cc(OC)cc(C(=O)Nc2cccc(C(C)=O)c2)c1`, the z-score was -0.0192.

`CCN(CC)CCCN1C(=O)C(=O)/C(=C(/O)c2ccc3c(c2)OCO3)C1c1ccccn1` (stereo not drawn) had a z-score of -0.271.

As for `COc1ccc(N(CC(=O)N2CCN(C)CC2)S(C)(=O)=O)cc1OC`, the z-score was found to be 0.943.

Regarding `O=C(CN1CCc2ccccc21)NCc1ccccc1Cl`, the z-score is -0.54.

Compound `O=C(Nc1nccs1)C1CC(=O)N(c2ccccc2Cl)C1` (stereo not drawn) came in with a z-score of -0.00396.

`O=C(NCc1ccc2c(c1)OCO2)C1CC(=O)N(CCc2ccccc2)C1` (stereo not drawn) yielded a z-score of -0.576.

Consider `CCCc1noc2c1C(c1ccoc1)C(C#N)=C(N)N2` (stereo not drawn), for which the z-score is -1.74.

Compound `COc1ccc(OC)c2[nH]c(=O)c(CCNS(=O)(=O)c3ccc(C)cc3)cc12` registered a z-score of -0.44.

For `Cc1ccc(/C(O)=C2\C(=O)C(=O)N(Cc3cccnc3)C2c2ccccc2[N+](=O)[O-])cc1` (stereo not drawn), the z-score was -0.293.

With `CCOc1ccc(/C=N/NC(=O)C(C)Sc2ccccn2)cc1OCC` (stereo not drawn), the z-score was -0.584.

On to `CCCCCCOC(=O)c1ccc(OC(=O)c2cccnc2)cc1`, for which the z-score stood at 0.019.

In turn, `O=[N+]([O-])c1c(NCCCO)cc(Sc2nc3ccccc3s2)c2nonc12` came in with a z-score of 1.13.

In turn, `O=C(NC12CC3CC(CC(C3)C1)C2)N1CCC(O)CC1` gave a z-score of -0.182.

With `COc1ccc(CCNS(=O)(=O)c2cccc(C)c2)cc1OC`, the z-score is -0.309.
